In publication PMC4336329 (PLoS ONE, 2015):
Out of some 310,000 compounds screened, about 14,000 (4.5%) showed an effect of 50% or more. Effects have a minus sign here. Some of the results follow.

Target: human ether-à-go-go-related gene (hERG) potassium channel (human, UniProt Q12809)
Experiment: primary screen, population patch clamp on CHO cells stably expressing hERG
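Further: peak tail current of the secondary pulse compared with the same well before compound.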

Chain of human ether-à-go-go-related gene (hERG) potassium channel (Q12809 whole entry, looked up): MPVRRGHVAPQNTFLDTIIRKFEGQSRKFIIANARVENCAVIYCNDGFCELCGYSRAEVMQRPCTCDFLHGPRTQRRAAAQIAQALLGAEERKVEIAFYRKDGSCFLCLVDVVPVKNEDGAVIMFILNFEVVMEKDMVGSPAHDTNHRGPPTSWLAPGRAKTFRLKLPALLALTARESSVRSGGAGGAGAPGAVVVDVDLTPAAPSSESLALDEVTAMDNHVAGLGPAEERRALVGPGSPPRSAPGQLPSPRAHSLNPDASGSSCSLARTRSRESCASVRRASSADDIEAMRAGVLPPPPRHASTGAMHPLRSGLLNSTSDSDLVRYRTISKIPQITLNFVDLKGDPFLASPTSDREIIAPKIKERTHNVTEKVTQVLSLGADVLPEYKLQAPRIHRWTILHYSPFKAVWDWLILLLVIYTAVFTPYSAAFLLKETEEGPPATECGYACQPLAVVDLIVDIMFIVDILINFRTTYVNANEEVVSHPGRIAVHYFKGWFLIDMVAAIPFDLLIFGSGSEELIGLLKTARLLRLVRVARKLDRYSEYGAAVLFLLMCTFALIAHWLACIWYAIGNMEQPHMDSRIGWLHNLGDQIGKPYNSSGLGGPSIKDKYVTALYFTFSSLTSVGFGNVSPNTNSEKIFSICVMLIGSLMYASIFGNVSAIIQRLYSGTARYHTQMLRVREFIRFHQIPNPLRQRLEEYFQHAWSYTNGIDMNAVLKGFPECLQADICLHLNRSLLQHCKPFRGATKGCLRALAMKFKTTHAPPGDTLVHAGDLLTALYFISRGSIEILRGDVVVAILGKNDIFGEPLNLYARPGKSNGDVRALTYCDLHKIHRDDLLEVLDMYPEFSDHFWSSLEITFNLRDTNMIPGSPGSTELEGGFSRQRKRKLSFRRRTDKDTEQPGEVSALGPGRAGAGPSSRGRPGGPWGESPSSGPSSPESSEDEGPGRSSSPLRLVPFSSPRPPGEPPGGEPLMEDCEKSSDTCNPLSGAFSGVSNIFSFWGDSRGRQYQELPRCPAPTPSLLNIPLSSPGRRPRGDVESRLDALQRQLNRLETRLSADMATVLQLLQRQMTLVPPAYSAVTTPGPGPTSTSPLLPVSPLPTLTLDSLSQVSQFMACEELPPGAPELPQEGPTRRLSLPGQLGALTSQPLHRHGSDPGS

Structure (SMILES) | hERG current change (%, negative = inhibition) at 10uM
N#Cc1c2n(c3c(=O)[nH]cnc13)CCCC2 | 15%
O=c1cc(C(F)F)oc2c1ccc1ccccc12 | -1.55%
CCN(CC)c1ccc2c(c1)oc(=O)c1c(Cl)cc(=O)oc12 | 14.8%
Cc1ccc2c(c1)c(-c1ccccc1)nc1nnnn12 | -10.5%
CCN1C(=O)[C@H]2[C@@H](c3ccc(-c4ccc(F)cc4)cc3)N[C@@](CC(C)C)(C(=O)OC)[C@H]2C1=O.O=C(O)C(F)(F)F | 0.854%
Cc1nnc(Sc2c(N)n(C)c(=O)[nH]c2=O)s1 | -8.89%
CCOC(=O)C(=Cc1ccc(-n2ccnc2)cc1)C(=O)OCC | -30.8%
CC(C)c1nnc(NC(=O)CC(C)c2ccccc2)s1 (stereo not drawn) | 1.39%
CCOC(=O)CNc1nc(-c2ccncc2)nc2ccccc12 | 4.79%
CCOC(=O)C(CC(=O)O)NCc1ccco1 (stereo not drawn) | 17.4%
CCCSc1nnc(N)s1 | 24.6%
Cc1ccc(CN(C)CC(=O)Nc2ccc3c(c2)CCC3)cc1 | 20.3%
Cc1ccc(S(=O)(=O)N2CCOCC2)cc1NC(=O)COC(=O)c1ccc2c(c1)OCCO2 | 6.92%
CC(C)NC(=O)c1ccccc1NC(=O)C(C)Oc1ccccc1 (stereo not drawn) | 0.199%
O=C(Cc1ccccc1)NCCSCc1ccccc1 | -8.81%
COc1ccc(OC)c(NC(=O)CSc2nc3[nH]c(=O)cc(O)c3s2)c1 | 22.9%
Cc1c(O)nc(SCC(=O)Nc2cccc(C(F)(F)F)c2)n(-c2ccccc2)c1=O | 30.2%
O=C(c1cc(COc2ccc3c(c2)CCCC3)on1)N1CCCC1 | -10.1%
CCC1=C(OC(=O)N(CC)CC)N2C(=O)OC(=NCCOC)[C@]2(Cc2ccccc2)[C@H]2C1=CC[C@H]1C(=O)NC(=O)[C@H]12 | 7.92%
COCCn1cnc2c1c(=O)n(CC#N)c(=O)n2Cc1ccccc1 | 12.5%
CCC1Oc2ccc(C)cc2N(CC(=O)NCc2ccccc2OC)C1=O (stereo not drawn) | -0.876%
COCC(=O)n1nc(-c2ccccc2)nc1NCc1ccc(N(C)C)cc1 | 24.3%
COc1ccccc1N1CCN(CCCCOc2c(OC)cccc2OC)CC1.O=C(O)C(=O)O | -57.9%

Structure (SMILES) | hERG current change (%, negative = inhibition) at 10uM
COc1cc(OC)c(CN2CCCN(C)CC2)cc1Br | 18.1%
O=C(COc1ccccc1)Nc1nnc(-c2ccc(Cl)cc2)o1 | 1.95%
CCCCN(C)CCC(=O)Nc1ccc(OC)cc1OC | 5.11%
Cc1ccc(S(=O)(=O)/N=C(\c2ccccc2)N(C)S(=O)(=O)c2ccc(C)cc2)cc1 | 16.6%
CCOC(=O)N/N=C/c1ccc(N(CC)CC)cc1O | -4.68%
O=C(C1CCN(S(=O)(=O)c2cccs2)CC1)N1CCN(c2ccccc2O)CC1 | -22.8%
COc1ccc(NC(=O)/C=C/c2ccco2)cn1 | 9.17%
O=C(c1ccccc1)N1CCC(O)(c2cccnc2)CC1 | 16.1%
CCCN(C(=O)c1nc2nc(C)cc(C)n2n1)c1c(N)n(Cc2ccccc2)c(=O)[nH]c1=O | 6.44%
Cc1ccc(C(=O)NC2CCCc3ccccc32)cc1[N+](=O)[O-] (stereo not drawn) | -16%
CCOc1ccccc1NC(=O)CN1C(=O)C(=O)N(Cc2ccco2)C1=O | 8.17%
O=C(Nc1ccc(OC(F)(F)C(F)F)c(NC(=O)c2ccc(F)cc2)c1)c1ccc(F)cc1 | 14.6%
CN(C(=O)Cc1ccccc1)n1cnnc1 | 11.9%
Cc1ccc(C)c(NC(=S)N2CCCCC2CO)c1 (stereo not drawn) | 15.9%
O=C(NCc1ccccc1)/C(=C\c1ccccc1)NC(=O)c1ccco1 | -21.7%
O=C(CNC(=O)c1ccc(Cl)cc1)OCC(=O)N1CCCC1 | 16.7%
O=C(CSc1nc2cc(Cl)ccc2s1)c1cc2ccccc2o1 | 17.8%
CCOC(=O)C1=C(C)N=c2s/c(=C/c3ccc(OCC(=O)O)c(OC)c3)c(=O)n2C1c1ccc(Cl)cc1 (stereo not drawn) | 3.29%
COc1ccc(N2C(=O)CC(N(CCc3ccccc3)C(=O)c3ccccc3)C2=O)cc1 (stereo not drawn) | -24.5%
CC1CC(C(F)(F)F)n2ncnc2N1 (stereo not drawn) | -1.96%
COCCCN(C(=S)Nc1c(C)cc(C)cc1C)C(C)c1ccccn1 (stereo not drawn) | 1.09%
CCOC(=O)c1nc2ccccc2s1 | 0.709%
